Screen size: about 110,000 compounds; about 40 (0.04%) were called active. Inconclusive means that the source gave no clear call. Such entries were picked first, then a sample of the others. Calls follow the shape of the dose curve; as a rule, active = well fitted curve in the direction sought with a large enough effect in the signal ratio (not every such curve was filed as active); inconclusive = small, poorly fitted or top-dose-only effect, or a change in a side signal; inactive = flat fitted curve, though single readings scatter; the % refers to the signal ratio. Potencies of inconclusive entries are doubtful fits and often do not repeat.
Experiment: IkB Signaling;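 as to IkBa stabilization activation: 0% = basal untreated cells and 100% = reference inhibitor full response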
Settings: ABC-DLBCL IkBa-CBG/CBR dual luciferase ratio (green luciferase fused to IkBa over red control in OCI-Ly3 lymphoma cells), 4 h; IkBa stabilization activation: at 57.1 µM (top of the series), scaled: untreated 0%, proteasome inhibitor 100% unless noted
Method in brief: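 Luminescence ratio of IκBα-fused green versus native red beetle luciferase in OCI-Ly3 cells, 4 h post-doxycycline with compound; red signal alone, scaled from basal (0%) to zero light (-100%), flagged nonspecific or cytotoxic effects.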
For `Cc1nc(N)sc1-c1csc(Nc2ccccc2)n1`, the “IkBa stabilization activation” value was inactive: 6.42%. In the case of `Cc1cc2c(cc(C(=O)OC(C(=O)NCc3ccco3)C(C)C)n2C)o1` (stereo unspecified), the IkBa stabilization activation was inconclusive: 2.93% [signal inhibitor]. For `Cc1ccc2[nH]c(C)c(CCNC(=O)c3cc4cc(Br)ccc4oc3=O)c2c1`, the “IkBa stabilization activation” value was inactive: 0.444%. For `CCOC(=O)c1ccc(NC(=O)c2c(NCc3ccc(OC)c(OC)c3OC)sc3c2CCC(C)C3)cc1` (stereo unspecified), the IkBa stabilization activation was inconclusive: 3.56% [signal inhibitor]. For `Cc1ccc(NC(=O)CN2C(=O)c3ccccc3Sc3ccc(C(=O)N4CCOCC4)cc32)c(Cl)c1`, the IkBa stabilization activation was inconclusive: 6.75% [signal inhibitor]. In the case of `c1nc2sc3c(c2c2nnnn12)CCC3`, the IkBa stabilization activation was inconclusive: -1.83% [signal inhibitor]. In the case of `Cc1conc1NC(c1cccs1)c1ccc2cccnc2c1O` (stereo unspecified), the Potency was inconclusive: 3.98 µM [rising, partial curve]. With `CCc1cc2c(cc3c(=O)n(CC(=O)NCc4cc(Br)ccc4OC)ncn32)s1` the “IkBa stabilization activation” value was inactive: 1.1%. For `C=CC(=O)OCCCCCCOC(=O)C=C`, the Potency was inconclusive: 25.1 µM [rising, partial curve]. With `O=C(NC1CCCCC1)C(c1cccs1)N(CC1CCCO1)C(=O)c1csnn1` (stereo unspecified) the “IkBa stabilization activation” value was inactive: -0.142%. With `COc1ccc(OC)c(NC(=O)Nc2cccc(Cn3cccn3)c2)c1` the IkBa stabilization activation was inconclusive: 1.9% [signal inhibitor]. With `CN1C[C@H](C(=O)N[C@]2(C)O[C@@]3(O)[C@H]4CCCN4C(=O)[C@@H](Cc4ccccc4)N3C2=O)C[C@H]2c3cccc4[nH]cc(c34)C[C@@H]21` the IkBa stabilization activation was inactive: 0.649% [at 11.4 µM, scaled: untreated 0%, proteasome inhibitor 100%]. With `CCOc1ccccc1NC(=O)Nc1cc2c(cc1N1CCCCC1)n(CC)c(=O)n2CC` the IkBa stabilization activation was inconclusive: 3.79% [signal inhibitor]. In the case of `CCOc1ccccc1CNCc1c(C(=O)O)n(Cc2ccc(F)cc2)c2cc(C)ccc12`, the “IkBa stabilization activation” value was inactive: -1.17%. For `Cc1ccc(C)c(S(=O)(=O)Nc2ccccc2C(=O)Nc2cc(C)on2)c1`, the IkBa stabilization activation was inconclusive: 2.44% [signal inhibitor]. In the case of `CC(C)(C)NC[C@@H](O)c1ccc(O)c(CO)n1`, the IkBa stabilization activation was inactive: 1.11% [at 11.4 µM, scaled: untreated 0%, proteasome inhibitor 100%]. For `O=C(Nc1c(-c2ccccc2)nc2ccccn12)c1ccccc1F`, the IkBa stabilization activation was inconclusive: 1.98% [signal inhibitor]. For `Cc1cc(C)cc(NC(=O)CNS(=O)(=O)c2ccc3nc(C)sc3c2)c1`, the IkBa stabilization activation was inconclusive: 2.92% [signal inhibitor]. For `O=C(OCC(=O)c1cccs1)c1ccccc1`, the “IkBa stabilization activation” value was inactive: 1.37%. In the case of `O=S(=O)(c1ccc(-c2csc(=Nc3ccc(OC(F)(F)Cl)cc3)n2CCCO)cc1)N1CCCC1`, the IkBa stabilization activation was inconclusive: 7.44% [signal inhibitor]. For `O=c1/c(=C\c2cccnc2)sc2nc3ccccc3n12`, the “IkBa stabilization activation” value was inactive: -0.524%. In the case of `CC(C)CCNC(=O)c1ccc2c(c1)N(Cc1ccccc1F)C(=O)c1ccccc1S2(=O)=O`, the “IkBa stabilization activation” value was inactive: 1.12%. With `Cc1ccsc1C1C=C(c2cccc(Br)c2)Nc2ncnn21` (stereo unspecified) the IkBa stabilization activation was inconclusive: 3.11% [signal inhibitor]. In the case of `COc1ccc(CCNC(=O)c2cc(-c3ccccc3OC)on2)cc1OC`, the Potency was inconclusive: 3.16 µM [signal inhibitor, partial curve]. For `Fc1cccc(Cl)c1CNCCSc1nnnn1-c1ccccc1`, the “IkBa stabilization activation” value was inactive: 0.336%. In the case of `Cc1ccc(C2C(C#N)=C(N)Oc3cc4c(cc32)OCO4)cc1` (stereo unspecified), the Potency was inconclusive: 25.1 µM [signal inhibitor, partial curve]. For `CCN(CC)CC(=O)N(CC(=O)Nc1c(C)cc(C)cc1C)C1CCCCC1`, the “IkBa stabilization activation” value was inactive: 0.715%. With `COc1ccc(C(c2nnnn2C2CCCC2)N2CCC(C)CC2)cc1` (stereo unspecified) the “IkBa stabilization activation” value was inactive: 3.81%. In the case of `CCc1ccccc1NC(=O)c1cc2sccc2n1C`, the “IkBa stabilization activation” value was inactive: 0.468%. For `CCOc1ccc(-c2nnc(SCC(=O)c3ccccc3)n2-c2ccccc2)cc1`, the IkBa stabilization activation was inconclusive: 9.82% [signal inhibitor]. In the case of `Cc1ccccc1-c1nccc(NCCN2CCOCC2)n1`, the IkBa stabilization activation was inactive: 0.775% [at 11.4 µM, scaled: untreated 0%, proteasome inhibitor 100%]. With `Cn1cccc1-c1cc2n(n1)CCC(=O)N2CCCC(=O)NCc1ccc(F)cc1` the IkBa stabilization activation was inconclusive: -0.742% [signal inhibitor]. With `Cc1cc(=O)[nH]c2nnc(SCc3ccc(C(F)(F)F)cc3)n12` the “IkBa stabilization activation” value was inactive: 1.99%. In the case of `COc1ccc2cc(CNc3ccc(OC)c(OC)c3)c(=O)n(CC(=O)Nc3ccccc3F)c2c1`, the IkBa stabilization activation was inconclusive: 0.6% [signal inhibitor]. In the case of `CCOC(=O)N1CCN(C(=O)CN2C(=O)COc3ccc(C)cc32)CC1`, the “IkBa stabilization activation” value was inactive: 2.15%. In the case of `CN(C)c1nc(-c2ccoc2)nc2ccccc12`, the IkBa stabilization activation was inactive: -1.68% [at 11.4 µM, scaled: untreated 0%, proteasome inhibitor 100%]. For `CCOC(=O)c1[nH]c(C)c(CCC(=O)Nc2cccc(SC)c2)c1C`, the IkBa stabilization activation was inconclusive: -0.129% [signal inhibitor]. For `O=C1c2cc([N+](=O)[O-])ccc2-c2ccc3c4ccc5c6c(ccc(c7ccc1c2c73)c64)C(=O)c1cc([N+](=O)[O-])ccc1-5`, the IkBa stabilization activation was inactive: 0.212% [at 11.4 µM, scaled: untreated 0%, proteasome inhibitor 100%]. In the case of `COc1cccc(NS(=O)(=O)c2ccc3[nH]cc(C(=O)NC4CC4)c(=O)c3c2)c1`, the IkBa stabilization activation was inconclusive: 6.75% [signal inhibitor]. With `CCOc1ccc(OCC)c(NC(=O)CCc2nc3cccnc3n2Cc2cccs2)c1` the IkBa stabilization activation was inconclusive: 3.23% [signal inhibitor]. With `COc1ccc(-c2nc(C)c(CCNC(=O)c3c(F)cccc3F)s2)cc1` the IkBa stabilization activation was inconclusive: -2.04% [signal inhibitor]. For `COc1ccccc1CN1CCC2(CC1)CCN(C(=O)c1cccc(F)c1)CC2`, the IkBa stabilization activation was inactive: 1% [at 11.4 µM, scaled: untreated 0%, proteasome inhibitor 100%]. For `COC(=O)N1CCCc2cc(S(=O)(=O)N3CCN(c4ccccc4)CC3)ccc21`, the IkBa stabilization activation was inconclusive: 3.07% [signal inhibitor]. For `COc1cc(Cl)c(C)cc1NC(=O)CSc1nc2c(c(=O)[nH]1)CCCC2`, the IkBa stabilization activation was inconclusive: 1.57% [signal inhibitor]. For `Cc1cccc(Cc2c(C)nc3nc(SCc4ccccc4Cl)nn3c2C)c1`, the “IkBa stabilization activation” value was inactive: 2.23%. For `COC(=O)c1ccccc1NC(=O)c1cc(C)nc2c1c(C)nn2-c1ccc(C)cc1`, the “IkBa stabilization activation” value was inactive: -4.04%. For `COc1cc(OC)c(NC(=O)n2ncc3cc(Cl)ccc32)cc1Cl`, the IkBa stabilization activation was inconclusive: 0.459% [signal inhibitor]. With `O=C(CSc1nnc2scc(-c3ccccc3)n12)NCc1ccco1` the “IkBa stabilization activation” value was inactive: -1.93%. For `COc1ccc(C2CC(=O)c3c([nH]c(C(=O)OC4CCCCCC4)c3C)C2)cc1` (stereo unspecified), the IkBa stabilization activation was inconclusive: 2.84% [signal inhibitor]. For `COc1ccc(OC)c(NC(=O)CSC2=Nc3ccccc3C3=NC(CC(=O)NCc4ccc(F)cc4)C(=O)N23)c1` (stereo unspecified), the IkBa stabilization activation was inconclusive: -0.512% [signal inhibitor]. With `O=C(Nc1ccccc1O)c1cc(S(=O)(=O)N2CCCC2)ccc1Cl` the IkBa stabilization activation was inconclusive: 6.02% [signal inhibitor]. With `Cc1ccc(Cl)cc1NC(=O)NCc1cccn1Cc1ccc(F)cc1` the “IkBa stabilization activation” value was inactive: -1.51%. For `Cc1ccc(CNC(=O)CSc2ncc(S(=O)(=O)c3ccc(C)c(Cl)c3)c(=O)[nH]2)cc1`, the IkBa stabilization activation was inconclusive: 3.31% [signal inhibitor]. With `Cc1ccc(NC(=O)c2c(O)c3ccccc3n(C)c2=O)nc1` the “IkBa stabilization activation” value was inactive: 19.4%. In the case of `COc1ccccc1N1CCN(C(=O)CCn2nc(C)c(S(=O)(=O)N3CCCC3)c2C)CC1`, the “IkBa stabilization activation” value was inactive: 2.05%. For `Cc1ccc(SCc2nc(-c3ccc(C(=O)Nc4cc(C)ccc4C)cc3)oc2C)cc1`, the “IkBa stabilization activation” value was inactive: 1.81%. For `Cc1nc2nc(SCC(=O)NCCc3ccc(Cl)cc3)nn2c(C)c1Cc1ccccc1Cl`, the IkBa stabilization activation was inconclusive: -1.75% [signal inhibitor]. With `Cc1ccccc1C1=CCN(c2ncc(NC(=O)c3ccc(Cl)cc3)cc2C(=O)O)CC1` the IkBa stabilization activation was inconclusive: 1.53% [signal inhibitor]. For `Cc1nc2c(-c3ccccc3)c(C)nn2c(C)c1CCC(=O)Nc1ccccc1F`, the IkBa stabilization activation was inconclusive: 4.89% [signal inhibitor]. For `CCOc1ccc(C(=O)NCC2CCCO2)cc1` (stereo unspecified), the “IkBa stabilization activation” value was inactive: -0.746%. With `COc1ccc(-c2noc(-c3ccc(C)cc3Cl)n2)cc1OC` the “IkBa stabilization activation” value was inactive: 0.0374%. With `CS(=O)(=O)n1nc(-c2ccco2)nc1NCc1ccccc1Cl` the IkBa stabilization activation was inconclusive: 0.349% [signal inhibitor]. With `COc1ccc(C(=O)c2cn(Cc3cccc(C)c3)c3cc4c(cc3c2=O)OCO4)cc1` the IkBa stabilization activation was inconclusive: -0.527% [signal inhibitor]. In the case of `COc1cc(Cl)c(C)cc1NC(=O)CSc1cc(-c2ccccc2)nc(C)n1`, the “IkBa stabilization activation” value was inactive: 0.231%. For `COc1ccc(CC(=O)NCCc2csc(-c3ccc(C(F)(F)F)cc3)n2)cc1`, the “IkBa stabilization activation” value was inactive: 3.33%. With `CCOC(=O)c1[nH]c(C)c(C(=O)NCc2cccc(OC)c2)c1C` the IkBa stabilization activation was inconclusive: 0.923% [signal inhibitor]. In the case of `COC(=O)Cc1cc(=O)[nH]c(Nc2nc3ccccc3o2)n1`, the Potency was inconclusive: 10 µM [signal inhibitor, partial curve]. For `COc1cccc(-c2nc(CS(=O)(=O)CC(=O)NCCCN3CCc4ccccc4C3)c(C)o2)c1`, the IkBa stabilization activation was inconclusive: 4.47% [signal inhibitor]. In the case of `COc1ccc(C(c2sc3nc(C)nn3c2O)N2CCC(O)CC2)cc1OC` (stereo unspecified), the “IkBa stabilization activation” value was inactive: -0.111%. With `Cc1c(/C=C(\C#N)C(=O)Nc2cccc(Cl)c2)c2ccccc2n1Cc1ccccc1` the “IkBa stabilization activation” value was inactive: 31.6%. With `COC(=O)c1cn(CCOc2ccccc2)c2ccccc12` the “IkBa stabilization activation” value was inactive: 1.05%.
Potency is read from the fitted curve at half-maximal effect.
